From the supplement of paper PMC3334620
Over roughly 33,000 sequences, “E-score (-0.5 to 0.5)” has its median near -0.017; the highest 2% begin near 0.3. The list shows a part of the results.

target: T1, Sut1 (UniProt P53032); assay: PBM E-score (8-mer binding enrichment) (E-score (-0.5 to 0.5)); higher = stronger / more preferred TF binding; most listed sequences are background and not binding sites; conditions: protein concentration: 200 nM; construct: GST-full length
T1 sequence: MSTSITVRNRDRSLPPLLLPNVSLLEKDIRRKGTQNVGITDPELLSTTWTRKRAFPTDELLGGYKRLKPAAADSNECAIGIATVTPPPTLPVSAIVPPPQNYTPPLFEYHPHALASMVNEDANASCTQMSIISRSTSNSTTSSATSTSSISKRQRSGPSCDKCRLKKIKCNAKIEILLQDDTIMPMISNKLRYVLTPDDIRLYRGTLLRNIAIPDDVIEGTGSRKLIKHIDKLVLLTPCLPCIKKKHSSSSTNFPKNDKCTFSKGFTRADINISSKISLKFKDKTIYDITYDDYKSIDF
Protocol: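 Universal 'all 10-mer' protein binding microarrays (Agilent AMADID 015681) probed with GST-tagged S. cerevisiae TFs (full-length or DBD) made by in vitro transcription/translation (PURExpress), about 100-200 nM. Bound TF was detected with fluorescent anti-GST. Each ungapped 8-mer (which stands for itself and its reverse complement) is scored by the PBM enrichment score (E-score), a modified Wilcoxon-Mann-Whitney statistic from -0.5 to +0.5, computed with the Universal PBM Analysis Suite. Scale: above 0.35 generally sequence-specific binding.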

| Sequence | PBM E-score |
| --- | --- |
| GCGCATTA | 0.069 |
| AGATCTTA | 0.106 |
| ATCAAGCG | -0.2 |
| CATTTCGC | 0.00375 |
| CTTTGCGC | 0.0622 |
| AAAATGAA | 0.0412 |
| CGACGGAC | 0.349 |
| CCATTGGA | -0.0647 |
| GATGTGTA | 0.105 |
| ACATGCGT | -0.0649 |
| GTTTGAAA | 0.247 |
| ACAATGTG | -0.0511 |
| GCCACATA | -0.0199 |
| CGCTTACC | -0.0431 |
| CACCACCA | 0.0206 |
| AAATGCGG | 0.185 |
| CCTTAACG | -0.00386 |
| ACCACGTA | -0.231 |
| GAAGGATC | -0.168 |
| AGTGCGTA | 0.00152 |
| CGAGGAAG | 0.0543 |
| GACAGTGC | -0.004 |

| Sequence | PBM E-score |
| --- | --- |
| ACTTCTCA | -0.033 |
| CAATACCG | -0.0551 |
| CGTGAGCA | -0.196 |
| ATTTTACC | 0.352 |
| GTTTGGAA | 0.101 |
| CGCTTCCA | 0.0245 |
| ATAGGCGG | 0.103 |
| CGCGACAC | 0.0583 |
| GGACAGAC | -0.169 |
| CCTTTCAG | -0.203 |
| CAAGTTAC | 0.168 |
| GGAGCGCA | -0.225 |
| CCTTATGA | -0.0897 |
| TCAGACCA | 0.0278 |
| AGCTTGAA | 0.00711 |
| GAACTAAA | 0.17 |
| ATCATCTG | -0.116 |
| ACCATTTG | 0.066 |
| AAGATTTC | 0.2 |
| AGTAGCTG | 0.0471 |
| AACTATAT | 0.276 |
| GAGGCGTA | 0.00054 |

| Sequence | PBM E-score |
| --- | --- |
| CGTGCTAG | -0.234 |
| CAGTCCCG | -0.0578 |
| CGTGTCAA | -0.179 |
| GCGATTAA | 0.0789 |
| CGAGATGC | 0.00628 |
| ATCCTTGA | -0.0256 |
| ATATCAGG | -0.00783 |
| AATTTCCG | 0.257 |
| GGGACCCA | -0.183 |
| ACCCTCAA | -0.00848 |
| ATTTCAAA | 0.219 |
| CCTCCGCC | -0.221 |
| GGTGGGAA | -0.254 |
| AATAGCTG | 0.0185 |
| CACGCGCA | -0.141 |
| CAACTCGA | -0.0149 |
| CTATAGTA | 0.215 |
| AGTAGGCG | 0.0779 |
| ACGACTGA | -0.0425 |
| ATTGTCTC | 0.0596 |
| TACTGTAA | 0.175 |
| CGCCATGA | -0.235 |

| Sequence | PBM E-score |
| --- | --- |
| TGAAACCA | 0.0773 |
| AGCCTTAT | -0.0244 |
| GACGGACA | 0.266 |
| GGGATCAA | -0.0345 |
| CTCAAGCC | -0.126 |
| CGGTGGAG | -0.00921 |
| CGGCCGAA | 0.134 |
| GAGAGAGC | -0.0633 |
| AGTAGCTA | 0.124 |
| CTATCCAG | -0.0682 |
| GAATGCGA | -0.0837 |
| GTTTCGGA | 0.334 |
| GGTAGCAC | -0.295 |
| AGCATACA | 0.187 |
| ATTATTTC | 0.306 |
| AAGTAATT | 0.264 |
| AGGCCGTG | -0.181 |
| CACAACGC | -0.165 |
| CCTCCCAG | -0.254 |
| AATTGCAA | 0.0746 |
